Drawing on the RNAGym collection of RNA variant scans (doi:10.7554/elife.90254), this text covers self-cleavage for 167 variants.

B1: OR4K15 (parent)
chain: GUUAACGGUCAUAGGCCAUGGAAACUAGGAGCACCAUUUCGCUGCCAGUGAAGAAAUGAACAAAGAAAAUCUGGGCCAGGCAGGCAUCAAAAGAAAUAGUCUUGCGCUCAACCAGAAAGUCUGUAAUCAUUUUAAGGGUA

Read counts are not given, so values of variants with three or more changes are uncertain.

Variants of B1 are the subject of the data set. As to the kind of experiment: self-cleavage, relative activity (ratio to wild type); higher = more cleavage; in vitro, sequencing; the parent is a self-cleaving ribozyme.
For the variant A60G A91G U108C, the self-cleavage was 0.02. The result for A62G A64C A68G A116U U139C reads 0.13; that for A62G A63G A114U, 0.1; that for A56G U72A A95G, 0.37.

As for U57C A90G U103C, the self-cleavage was found to be 0.26. Under A59U C81U A110U stands 0.06; under A59G A63U C101U, 0.43. On to A60G A67U U131C, for which the self-cleavage worked out at 1.45. Consider A59G A68G G75A A78G, for which the self-cleavage came to 0.17. With A60G A116G A117G A129G, the self-cleavage was found to be 0.12. Under A62G A92G A110U U124C A125G stands 1.34; under A59G U87A A111G U139A, 0.01. The result for U57C A62G A66U A69U A89G reads 0.51; that for U57C U100C U103C, 2.2; that for A59G A82G A126U, 0.44. Under A60G A111G A129G stands 0.02; under A60G U87C A89U, 1.36. Consider U57C A78G U87C, for which the self-cleavage is 0.15. For the variant A59G A96G A111G U122G, the self-cleavage stood at 0.01. The result for A62G A68U A110G A116G reads 0.04; that for A56U A86G A89G, 1.75; that for A60G A86G U102C U122A A126G, 0.38. With A59G A114G U139C, the self-cleavage is 0.09.

On to U57A A82G U108C C128U, for which the self-cleavage was found to be 0.02. Under A60G A68U U102C stands 1.68. The result for U57A U87A A118G U122C reads 0.58; that for A56G U70A A92G A114G A117G, 0.03. The result for A60G A92U A116U reads 0.11; that for A60C G75A A129U, 0.07; that for U57C A69G A86G A129U, 0.56. With C61U A64G U108C, the self-cleavage was found to be 0.02.

Turning to A59U A69U A111G, the self-cleavage is 0.05. With A60G G80A A129G, the self-cleavage stood at 0.05. The result for A59G A60C U70C A95G reads 0.91. Under U57A U70C A96U A117G stands 1.08; under C61U C105U A117G, 0.31.

As to A59G A66G A110U, the self-cleavage was found to be 0.99. Take A62G A98C G99A A140G: the self-cleavage was 0.29. The result for A59G C85U A114G reads 0.14; that for A60G A78G A86U U87A, 0.26; that for U57C U72C G75C, 0.17. As for A59U A78U U87A A116G, the self-cleavage stood at 0.03. As to A60G U72C A111G, the self-cleavage was 0.02.

As for A59G A60G A69G U72A A92U, the self-cleavage came out at 0.28. On to A56G U70C A110U, for which the self-cleavage was 0.34. The result for A59G U120A U130C reads 1.38; that for U57A A86C A111G U122C, 0; that for A59U A82U G115U, 0.03. Under A62G A78G U131C stands 0.14; under A56G U87C A117G A125C, 1.45; under U57C U120C A140C, 0.75. The result for A56G U72C U139C reads 0.35. Consider U57A A92G A111G, for which the self-cleavage turned out to be 0.02. Under A59G U72A G93U A96G stands 0.36; under A62G A82G A91C A117G, 0.57. Under A59G G83A G106A stands 0.02; under U57C A78G U100C, 0.38. The result for A60G A64G A90G U127C reads 0.18; that for A60U A111C U132C, 0.01; that for A60G A90G A95G, 0.95. As to A59C A69G A86G A118U U122C U132C A135G, the self-cleavage came out at 0.16. Consider U57C U70A A82G A92G, for which the self-cleavage was 0.18. For A59G U108C A126U, the self-cleavage came to 0.04.

As to A59G U130C U132C, the self-cleavage was determined as 0.84. As for A62G A68G A91G U131C, the self-cleavage turned out to be 0.69. The result for A60G A63G A110G reads 0.16. The result for U57A A90G U100C reads 2.3.

As to U57C A86U U124A, the self-cleavage was 1.27. Under A62G A66G A78G U108A stands 0.04; under A56G U102A U131A, 1.23. Under A59G A117G G119A stands 2.97; under A60G U70A C113U, 0.06; under A60G A66U U97C U108C, 0.02. Consider G58A A66G A118G, for which the self-cleavage amounted to 0.99. In the case of A62G A63U U70C A91U A98G U102A, the self-cleavage worked out at 0.02. The result for A60G C121U U127C U132C reads 1.84. Turning to A59G A95G U122C U132C, the self-cleavage came to 1.3. As to A59G A64G U70C A129G, the self-cleavage is 1.05. The result for A59G A82U A116U reads 0.05. Under A56G U57C A60G A67G A68G U130C stands 0.58; under A59G G93U A129G, 1.72. Under A59G U70A U87C A129G stands 0.16; under A59G A118G U131C, 0.86; under A62G A66G A89G A111G A125G, 0.01. As to A62G A67G A69G A110U, the self-cleavage was determined as 0.54. Under A60G A82U C85A U127C stands 0.1; under A56G U70C G75A C81U U102C U130C, 0.02; under A59U A67G A68G, 0.46. On to A62G A82G A89G U120C, for which the self-cleavage is 0.09. The result for U57A U70C U72A U124C U139C reads 0.09; that for A60G A90G A116C, 0.01.

On to A60G A69G A90G U100C A125G, for which the self-cleavage came to 0.88. Under A59G A64G A110G stands 0.2; under U57C A95G U103C U120C, 0.41.

Turning to A59U A89C A116G, the self-cleavage was found to be 0.4. Under U57C A66G A94U stands 1.28. As for A60G A62U A82C U120C U130C A135G, the self-cleavage was 0.05. Regarding A59G A68G A94U G115A U122C, the self-cleavage amounted to 0.04. Consider A59G U103A U130C, for which the self-cleavage turned out to be 0.72. Turning to A60G A68G A69U, the self-cleavage was determined as 1.28.

On to A62G A78G G79A A114G U132C, for which the self-cleavage is 0.04. As to A59G A86G G104A A125U, the self-cleavage was 0.03.

As for U57A A63G A82G, the self-cleavage stood at 0.69. Under A60G A69G U87C A116G stands 0.14; under A59G U102C A118G, 0.72; under G58A A90G A95G A110G, 0.1. The result for A59U A68G U87C A98G A110U reads 0.73; that for A59G A62G A66G A135G, 1.47.

For A59G A62G U124G, the self-cleavage was 0.98. The result for A60G U70A U108A reads 0.04; that for A60G G83U A95G U127C, 0.09; that for U57C C76U A111G, 0.02. Regarding A59G G74A U87C, the self-cleavage is 0.4.

In the case of A59U A62G U87G, the self-cleavage is 0.55.

For the variant A59U U72C A117G, the self-cleavage is 0.24. Under A59G A60G C61U stands 0.84.

Turning to C61A A90G U131C, the self-cleavage worked out at 0.7. The result for A60G A92G U102C reads 1.04; that for A59G A64G U122A, 0.55; that for A59G U72C G138A, 0.17. In the case of A62G A64G A86G U139C, the self-cleavage came out at 0.9.

Consider A62G A90G A96U U103C U122C, for which the self-cleavage turned out to be 0.14. The result for A60G A64G A66G reads 1.02; that for A60U A92G A126G, 1.31; that for A60G A66G A90G U131C, 0.49.

Regarding C61U U97C U132C, the self-cleavage is 1.24. Regarding A59G A60G A78U U122C, the self-cleavage was found to be 0.42. Turning to A62G A92G U122C U130C, the self-cleavage was determined as 1.1. Under U57A U87C U102C stands 2.69; under G58A C85U U102A U130C, 0.34; under U57C A78G A94G, 0.39. Consider A60G U103A U122C A126G, for which the self-cleavage came out at 0.21. Under A60U A69G A94G stands 1.31; under A59G A62G A68G A78G A90G, 0.26; under A59G C88A U100C A111G, 0.01. Under A60G A86G G115A stands 0.07; under A59G U102C A116G, 0.98. Under U57C A82G A91G U100A U127C stands 0.04; under G58A A78G A117U, 0.08; under A62G A94G A96G U100C U127C, 2.05.

Turning to A56G U100C U102A, the self-cleavage was 1.71. The result for A59U U122C A126G reads 1.44. The result for A59U A66C A95G C128U reads 0.93. Turning to A59G U70C A82U A96U, the self-cleavage is 0.26. On to A59G A63G U102C, for which the self-cleavage worked out at 1.4. Take A62G A86G U131C: the self-cleavage is 1.05. The result for C61A A68G U72A A129U reads 0.18; that for U57A U132C G137A, 1.15. On to A62G A78U U132C, for which the self-cleavage was found to be 0.21. The result for U57C A94G G106A A114U reads 0. Take A60G A94G U103C A114G: the self-cleavage was found to be 0.54. The result for A60U U72A U102C reads 0.43. Consider A59G G106C C109A, for which the self-cleavage worked out at 0. Under A59G A89G A116U stands 0.35; under A60G A66G U102C, 1.48. Under A60G A114G U130C stands 0.04; under A59G U100C A110G, 0.26; under A60C A91G U102C U103C A117G, 0.23. Take A60G A78G C109A: the self-cleavage amounted to 0.13. U57A A68G U132C: the self-cleavage worked out at 0.97. The result for A60G A62G U108A reads 0.02. For A56U A67G G79A, the self-cleavage was 0.46. Turning to U57A A67G A82U, the self-cleavage turned out to be 0.26. With A59G U70C U131G, the self-cleavage is 0.37.

Take A59G A60G A78G: the self-cleavage was determined as 0.34. In the case of A62G A78U A117U A126U G138A, the self-cleavage was 0.18. Under U57C A67G U100C U103C U108C A114U C128A stands 0.01.
